# Measured values published in ChEMBL document CHEMBL4888484, “Replenishing the malaria drug discovery pipeline: Screening and hit evaluation of the MMV Hit Generation Library 1 (HGL1) against asexual blood stage Plasmodium falciparum ,using a nano luciferase reporter read-out” (2022).
# The whole screen tested about 150,000 compounds, of which about 540 (0.36%) showed an effect of 50% or more. The list shows a part of the results.
# Tested on: Plasmodium falciparum
# Experiment: Primary screen in NF54 nanoGlo assay, in single point, at 2uM, 72h; a lower Z score goes with more inhibition
# Type: functional, Erythrocyte
# Conditions: timepoint 72 hour
Structure (SMILES),% Inhibition,Z score
CCN(CC)CCCNC(=O)C1CCN(c2c(NC(C)=O)c(C)nn2-c2ccccc2)CC1,-8%,1.14
CCN1C(=O)COc2ccc(-c3noc(-c4cnccn4)n3)cc21,7%,-0.79
CCc1nc(CNC(=O)NCCc2nc(C)cs2)cs1,34%,-3.82
Clc1ccc([C@H](CNc2nn3cnnc3c3ccccc23)N2CCCCC2)cc1,-8%,1.16
O=C(CN(CCO)Cc1ccsc1)Nc1ccnn1C1CCCC1,-4%,0.65
Cc1c(Cl)cccc1-n1ccn2c(=O)n(Cc3cccc(F)c3)nc2c1=O,-15%,1.8
CCc1c(-c2ccc(N(C)C)nc2)cnn1C,-5%,1.08
CC(=O)c1ccc(NC(=O)c2cc(C)nc(O)c2)cc1Cl,-2%,0.27
CCc1cccc(NC(=O)N2CCN(c3nc4ccncc4n(CC(C)C)c3=O)CC2)c1,-4%,0.35
CN(c1ccccc1NCCCS(C)(=O)=O)C1CCCC1,0%,0.04
O=C1CCN(Cc2cccs2)CCN1CC1CCCCC1,-6%,0.89
O=C(CC1(C(=O)O)CCCC1)Nc1cc(N2CCCC2=O)ccc1F,2%,-0.36
CCCn1cc(N[C@@H](C)c2nc(C(C)C)no2)cn1,-12%,1.7
COc1cc2c(cc1C(=O)N[C@@H]1[C@@H]3CCO[C@@H]3[C@H]1NC(C)=O)CCC2,6%,-0.79
Cc1cc2occ(CC(=O)NCc3ccccn3)c2c(C)c1Cl,8%,-1.05
CCOC(=O)C[C@H](N)c1ccc(C)cc1C,-4%,0.73
CCc1nc(C(=O)Nc2ccc(CN3CCOCC3)cc2)c[nH]1,2%,-0.28
Cc1n[nH]c(C)c1CC(=O)Nc1ccc2c(c1)N(C)CCO2,-10%,1
CCOc1ccccc1NC(=O)N1CCC(N2CCN(Cc3ccccc3)C(=O)C2=O)CC1,-10%,0.94
Cc1nn(C)cc1NC(=O)CC1CC2CCC1C2 (centres undefined),2%,-0.29
CC[C@H]1CN(Cc2ccc(CO)o2)Cc2ccc(Cl)cc2O1,-6%,1.11

Structure (SMILES),% Inhibition,Z score
Cc1cccc(S(=O)(=O)N2CCc3nc(N4CCCCC4)nc(Oc4ccc(F)c(C)c4)c3C2)c1,-2%,0.22
O=C(O)c1cc(-n2c(=O)[nH]c3ccccc32)ccc1O,-1%,0.19
Cc1cncc(Br)c1NC(=O)c1cc(CN(C)C)on1,-7%,1.37
Cc1cc(C(=O)NCC[C@H](O)c2cc(C)oc2C)no1,-5%,1.06
O[C@H]1CCN(c2cc([C@H]3C[C@H](Nc4ncnc5sccc45)C3)ncn2)C1,-11%,1.32
N#Cc1ccccc1OC1CCC(NC(=O)N[C@H]2CCCC23CCOCC3)CC1 (some centres undefined),-15%,2
CC(CC1CCCN1C(=O)OC(C)(C)C)NCC(=O)NCC1CC1 (centres undefined),-5%,0.68
CC(C)Oc1ccc(S(=O)(=O)NCc2cc(C(C)C)no2)cc1,1%,-0.14
CC(C)(C)OC(=O)COC(=O)[C@@H]1CCCCN1Cc1ccccn1,-14%,2.16
CN(Cc1cccnc1)Cc1ccc[nH]1,-10%,1.11
COc1cccc(NC(=O)NCCn2nc(C(F)(F)F)cc2C2CC2)c1OC,-4%,0.53
C=CCOc1ccc(Cl)cc1CN1CCC2(CC1)CNC(=O)C2,-18%,1.78
C[C@@H](C(=O)NCC1CCN(C(=O)C2CC=CC2)CC1)n1cccn1,-2%,0.2
CCN(CC)c1onc(-c2ccccc2)c1CN(CC(C)C)C(=O)CC(C)C,7%,-0.75
O=C(NCC1CC(F)(F)C1)[C@H]1CC12CC2,-9%,1.15
CCc1nc2cc(N)cc(C(=O)NCc3ccc(C)o3)c2n1CCCOC,-1%,0.12
Cc1n[nH]c(C)c1CC(=O)N[C@@H]1C[C@H]1c1c(F)cccc1Cl,-16%,2.94
C=CCN(Cc1ccc(F)cc1)C(=O)CCn1ccc(=O)[nH]c1=O,16%,-2.03
Cc1ccc(CNC(=O)c2ccc3nn(CC(=O)Nc4cc(C)ccc4C)c(=O)n3c2)cc1,-3%,0.28
CCCCN1CCn2nc(CN[C@H]3CCc4ccc(OC)cc4C3)cc2C1,-15%,2.92
C[C@@H](NC(=O)c1ccc2c(c1)OCO2)c1c(-c2ccc(F)cc2)noc1C(=O)O,0%,-0.03

Structure (SMILES),% Inhibition,Z score
Cc1cc(C)c(S(=O)(=O)Nc2cccc(C(=O)N3CCC[C@H]3C(=O)NC(C)C)c2)cc1C,15%,-1.72
O=C(Cn1cnc(-c2noc(C3CC3)n2)c1)NCc1ccccc1Cl,-13%,1.67
COc1ccccc1CCNC(=O)[C@@H]1CCCN1C1CCOCC1,-8%,0.85
O=C(CCNS(=O)(=O)c1ccc(F)c(F)c1)NCCS(=O)(=O)c1ccccc1,-7%,1.38
CCn1nccc1-c1cc(NC(C)C)nc(N)n1,-7%,1.14
Cc1ccc(-n2nc(C(=O)NCC3CC3)c(=O)n(Cc3ccccc3)c2=O)cc1C,-11%,2.04
Cc1ccc(C)c(-c2n[nH]cc2CN2CCN(C3CCN(C(C)C)CC3)[C@@H](CCO)C2)c1,-13%,1.16
Cc1ccc(Br)c(NC(=O)C(=O)NCc2cc[nH]n2)c1,-1%,0.05
Cc1cc(-c2cccc(C(=O)NCCCn3ccnn3)c2)cc(C)n1,5%,-0.76
Cc1n[nH]cc1CN(C)C(=O)[C@]1(c2ccccc2)CC12CCCC2,-13%,1.84
COc1ccccc1OC1(C(=O)O)CCN(Cc2cccnc2N)CC1,-13%,1.52
CC1Cc2cc(F)ccc2C(C)N1C(=O)CCC(=O)c1cnn(C)c1 (centres undefined),-7%,0.96
CCOc1cccc(Cn2c(=O)c3sccc3n(Cc3nc(-c4ccccc4C)no3)c2=O)c1,-9%,1.11
CN(CC(N)=O)CC(=O)Nc1ccnn1CC1CCCCC1,-3%,0.39
COc1ccc(NC(=O)CNC(=O)c2cn(-c3ccccc3OC)c(=O)c3ccccc23)cc1OC,-2%,0.28
C[C@@H](CC(=O)Nc1cc(S(=O)(=O)N2CCOCC2)ccc1OCC(F)(F)F)c1ccccc1,2%,-0.33
COC(=O)C[C@H](NC(=O)c1oc(C)nc1C)C1CCCCC1,-4%,0.53
CCOc1ccc2c(c1)N=C(c1ccc(F)cc1)N=C(c1ccc(N(C)C)cc1)N2,-3%,0.32
Cc1ccc(-c2nc(N3C[C@@H](C)O[C@@H](C)C3)ncc2-c2cncnc2)cc1,-11%,1.72
COc1ccc(-n2c(-c3ccccc3)cc(C(=O)N3CCN(c4cccc(C(F)(F)F)c4)CC3)c2C)c(OC)c1,-7%,1.16
Cc1cnc(NC[C@]2(CO)COCCN2C)nc1,0%,-0.02

Structure (SMILES),% Inhibition,Z score
CN1C[C@@H](O)CNS(=O)(=O)c2ccccc2O[C@H]2CN(CC3CC3)C[C@H]21,1%,-0.2
O=C(c1ccc(NS(=O)(=O)c2cnc3n2CCC3)cc1)C1CCC1,-17%,1.94
COc1ccc(S(=O)(=O)N2CCOCC2)cc1NC(=O)C1(c2ccc(F)cc2)CCC1,-4%,0.8
CC(=O)Nc1ccc(-n2ccnc2-c2nccn2C)cc1,2%,-0.35
COc1cccc(Oc2nc(N3CCN(C)CC3)nc3c2CN(Cc2ccc4c(c2)OCO4)CC3)c1,1%,-0.12
Cc1ccc(-c2noc(C(=O)N3CCCCC3)n2)cc1S(=O)(=O)NC1CC1,-9%,1
O=C(Nc1cccc(F)c1)c1cc(-c2ccc(F)cc2)ns1,3%,-0.53
COc1cc(Br)ccc1CNC(=O)NC[C@H](C)OC,14%,-1.29
Cc1cc(Cn2cc(CCc3ccccc3)nn2)n[nH]1,-9%,1.07
Cc1ccc(-c2noc(C3CCOC3c3ccc(Cl)c(F)c3)n2)cc1 (centres undefined),-12%,1.49
COc1ccc([C@@H](Nc2nc(N3CCCC3)nc(N3CCCC3)n2)c2nccn2C)cc1,-3%,0.49
O=S1(=O)CCC(n2cc(CNC3CCc4cc(F)ccc43)cn2)C1 (centres undefined),-2%,0.21
Cn1nccc1CNc1nnc(-c2ccc(S(C)(=O)=O)cc2)o1,-9%,1.42
O=C(N[C@H](c1ccccc1F)C1CCCC1)C1CCN(C(=O)c2ccco2)CC1,-9%,0.87
CC(=O)Nc1c(-c2ccccc2)c(C)nn1-c1ccc(C(=O)N2CCN(C3CCCCC3)CC2)cc1,-10%,1.73
c1ccc(-c2ncc3c(n2)CCC[C@@H]3NCc2ccncc2)cc1,-1%,0.09
O=C(Nc1ccccc1)c1ccc(COc2cccc3ccccc23)cc1,-7%,0.81
O=C(O)C1CCN(S(=O)(=O)N2CCCC[C@@H]2CCc2cccs2)CC1,-4%,0.7
O=C(O)C1(Oc2ccc(Cl)cc2)CCN(c2ncnc3[nH]cnc23)CC1,4%,-0.58
